{"source": "PubChem BioAssay AID463173", "about": "(ICCB-Longwood Screening Facility, Harvard Medical School, 2010)", "note": "Screen size: about 52,000 compounds; about 4,300 (8.3%) were called active. Cut-off read from the data, not from the text of the source: active = survival mostly below about 52% (no sharp cut-off); inactive = mostly above about 56%. The list shows a part of the results."}
{"system": "DeltatarO mutant", "experiment": "growth inhibition of S. aureus wild type versus tarO mutant, primary screen, teichoic acid synthesis inhibitors, RN4220, OD600 (AID 463173)", "conditions": "OD600, 18 h, active compounds read low, screened at 18.75 µg/mL (by protocol)"}
{"smiles": "COc1ccccc1NC(=O)C1=C(C)Nc2nc(SC)nn2C1c1ccccc1Cl", "note": "(configuration not stated)", "survival": "inactive: 87%"}
{"smiles": "CCOC(=O)c1c(NC(=O)c2ccc(OCC)c(Br)c2)sc2c1CCCC2", "survival": "inactive: 74%"}
{"smiles": "CC(=O)Nc1cc(C(=O)NCc2ccc(F)cc2)ccc1Sc1ccc(F)cc1", "survival": "inactive: 94%"}
{"smiles": "Cc1cc2oc(=O)c(CC(=O)NCCc3ccccc3F)c(C)c2c2occ(C(C)(C)C)c12", "survival": "inactive: 86%"}
{"smiles": "CCCCN(C(=O)C1CCC(CNS(=O)(=O)c2cccc3nsnc23)CC1)c1ccccc1", "note": "(configuration not stated)", "survival": "inactive: 80%"}
{"smiles": "CC(=O)Nc1ccc(NC(=O)CN(C)S(=O)(=O)c2ccc3c(c2)CCCC(=O)N3)cc1", "survival": "inactive: 84%"}
{"smiles": "COc1ccc(CC(=O)NCC(c2cccs2)S(=O)(=O)c2ccc(F)c(C)c2)cc1", "note": "(configuration not stated)", "survival": "inactive: 105%"}
{"smiles": "Cc1ccc(S(=O)(=O)Nc2nnc(CC(C)(C)C)s2)cc1", "survival": "inactive: 87%"}
{"smiles": "Cc1ccc(C)c(S(=O)(=O)c2nnn3c2nc(N2CCN(C)CC2)c2sccc23)c1", "survival": "inactive: 103%"}
{"smiles": "COc1ccc(-c2[nH]nc3nc(-c4cc(Br)ccc4OC)cc(C(=O)O)c23)cc1", "survival": "inactive: 88%"}
{"smiles": "Cc1c(C(=O)OC2CCCCC2)[nH]c2c1C(=O)CC(c1ccc(F)cc1)C2", "note": "(configuration not stated)", "survival": "inactive: 76%"}
{"smiles": "CC(C)CC(=O)NCC(c1ccc2c(c1)OCO2)N1CCN(c2ccccc2)CC1", "note": "(configuration not stated)", "survival": "inactive: 85%"}
{"smiles": "O=C(CN1CCCN(Cc2cccc(Cl)c2)S1(=O)=O)Nc1ccc2c(c1)OCCO2", "survival": "inactive: 78%"}
{"smiles": "CC1=NN(c2cccc3ccccc23)C(=O)C1", "survival": "inactive: 102%"}
{"smiles": "CCC(=O)Nc1ccc(Cl)c(-c2nc3ccccc3[nH]2)c1", "survival": "active: 49%"}
{"smiles": "COc1ccccc1CN1CCC(CNC(=O)c2cnn(-c3ccccc3Cl)c2C2CCN(C(=O)OC(C)(C)C)CC2)CC1", "survival": "inactive: 67%"}
{"smiles": "COc1ccccc1CNC(=O)CCc1c(C)nc2cc(-c3ccc(Cl)cc3)nn2c1C", "survival": "inactive: 129%"}
{"smiles": "Cc1cccc(NC(=O)c2ccc(-n3c(C)nnc3C)cc2)c1", "survival": "inactive: 88%"}
{"smiles": "Cc1ccc(-n2ncc3c(N4CCCCCC4)ncnc32)cc1Cl", "survival": "inactive: 102%"}
{"smiles": "O=S1(=O)c2ccccc2N(Cc2cccc(F)c2)c2ccccc21", "survival": "inactive: 55%"}
{"smiles": "COc1ccc(NC(=O)c2ccco2)cc1NC(=O)c1cc(Cl)ccc1OC", "survival": "inactive: 49%"}
{"smiles": "CSc1ccc(-c2nnn(CC(=O)Nc3sc4c(c3C#N)CCC(C(C)(C)C)C4)n2)cc1", "note": "(configuration not stated)", "survival": "inactive: 82%"}
{"smiles": "CCCCOc1ccc(C(C)NC(=O)CN2C(=O)CSc3ccc(S(=O)(=O)N4CCOCC4)cc32)cc1", "note": "(configuration not stated)", "survival": "inactive: 65%"}
{"smiles": "CCCN(CCC)C(=O)Cn1c(=O)n(-c2cccc(C)c2)c(=O)c2c1c1cc(OC)ccc1n2C", "survival": "inactive: 64%"}
{"smiles": "COc1cccc(-c2cc(C(F)(F)F)nc(NCCc3ccc(OC)c(OC)c3)n2)c1", "survival": "active: 4%"}
{"smiles": "Cc1cccc(CCNC(=O)c2cc(S(=O)(=O)N3CCCCC3)c[nH]2)c1", "survival": "inactive: 74%"}
{"smiles": "Cc1c2cnn(-c3ccccc3)c(=O)c2c(C)n1C(C)C(=O)Nc1ccccc1C(F)(F)F", "note": "(configuration not stated)", "survival": "inactive: 75%"}
{"smiles": "Cc1cccc(N2CCN(C(=O)c3ccc4c(c3)N(Cc3ccccc3)C(=O)c3ccccc3S4(=O)=O)CC2C)c1", "note": "(configuration not stated)", "survival": "inactive: 63%"}
{"smiles": "CCn1c(=O)ccc2cc(OC)ccc21", "survival": "inactive: 73%"}
{"smiles": "Cc1ccc(C)c(NC(c2ccccc2)c2nnc(-c3ccccc3F)o2)c1", "note": "(configuration not stated)", "survival": "active: 4%"}
{"smiles": "Clc1ccc(CCNc2nc3cc(Cl)c(Cl)cc3n3cnnc23)cc1", "survival": "inactive: 91%"}
{"smiles": "COc1ccc(CCN2C(=O)N(c3cccc(C)c3)C(=O)C2CC(=O)Nc2ccccc2)cc1OC", "note": "(configuration not stated)", "survival": "inactive: 64%"}
{"smiles": "COc1c(Cl)cc(Cl)cc1C(=O)Nc1cccc(-c2nc3ccccc3o2)c1C", "survival": "inactive: 109%"}
{"smiles": "O=S(=O)(c1ccc(F)cc1)N1CCC(Oc2cccc(C(F)(F)F)c2)CC1", "survival": "inactive: 71%"}
{"smiles": "CCc1ccccc1NC(=O)c1cn(C)c(=O)c2ccccc12", "survival": "inactive: 68%"}
{"smiles": "COc1cccc(CNC(=O)C(=O)NCC(c2cccs2)S(=O)(=O)c2ccccc2)c1", "note": "(configuration not stated)", "survival": "inactive: 116%"}
{"smiles": "COc1ccc(CCNC(=O)CCCn2c(=O)c3ccccc3n(Cc3ccccc3)c2=O)cc1OC", "survival": "inactive: 94%"}
{"smiles": "CCC1(CC)Cc2ccccc2-c2nc(NN)n(Cc3ccccc3)c(=O)c21", "survival": "active: 48%"}
{"smiles": "COc1ccc(OCCn2c(NC(=O)c3ccc(OC)cc3)nc3ccccc32)cc1", "survival": "active: -2%"}
{"smiles": "CNC(=O)C1CCC(Cn2c(=O)c3sccc3n(CC(=O)N3CCCC(C)C3)c2=O)CC1", "note": "(configuration not stated)", "survival": "inactive: 93%"}
{"smiles": "COCCCNC(=O)C1CCN(Cc2cc3ccccc3n2Cc2cccc(C)c2)CC1", "survival": "inactive: 91%"}
{"smiles": "COc1cc(-c2nc(SCC(=O)Nc3ccc4c(c3)OCO4)c(-c3ccccc3)[nH]2)cc(OC)c1OC", "survival": "inactive: 57%"}
{"smiles": "COc1ccc(-c2nnc(SCC(=O)N3CCC(C)CC3)o2)cc1", "survival": "inactive: 82%"}
{"smiles": "COc1ccc(-c2nnc(C3CCN(S(=O)(=O)c4cccc(Cl)c4)CC3)o2)cc1", "survival": "inactive: 79%"}
{"smiles": "COc1ccccc1CNC(=O)CSc1ncc(S(=O)(=O)c2ccc(C)c(Cl)c2)c(=O)[nH]1", "survival": "inactive: 124%"}
{"smiles": "CCCOc1ccc(CNC(=O)C(NS(=O)(=O)c2cccs2)C(C)C)cc1", "note": "(configuration not stated)", "survival": "inactive: 77%"}
{"smiles": "COc1cc(Cl)c(C)cc1NC(=O)c1cnc(N2CCCCC2)c2ccccc12", "survival": "inactive: 115%"}
{"smiles": "Cn1nc(CC(=O)Nc2ccc(N3CCN(C(=O)OC(C)(C)C)CC3)cc2)c2ccccc2c1=O", "survival": "inactive: 84%"}
{"smiles": "COC(=O)C(CCSC)Nc1ncnc2onc(-c3ccc(F)cc3)c12", "note": "(configuration not stated)", "survival": "inactive: 52%"}
{"smiles": "CC(C)Cn1c(-c2cccc(Br)c2)nc2ccccc21", "survival": "active: 21%"}
{"smiles": "CCOC(=O)C1(C)C=C(Nc2cccc(C(=O)O)c2)C(=O)N1c1ccccc1", "note": "(configuration not stated)", "survival": "inactive: 73%"}
{"smiles": "Cc1ccc2c(=O)cc(C(=O)Nc3c(C)n(C)n(-c4ccccc4)c3=O)oc2c1", "survival": "active: 39%"}
{"smiles": "COc1cc(NC(=O)CSc2nc3nc(C)c(Cc4ccccc4Cl)c(C)n3n2)cc(OC)c1", "survival": "inactive: 73%"}
{"smiles": "COc1ccccc1N1CCN(C(=O)C2CCCN(S(=O)(=O)c3ccc4c(c3)CCCN4C(C)=O)C2)CC1", "note": "(configuration not stated)", "survival": "inactive: 88%"}
{"smiles": "Cc1ccc(Nc2ncnc3sc4c(c23)CCC(C)C4)cc1C", "note": "(configuration not stated)", "survival": "inactive: 58%"}
{"smiles": "O=C(c1ccccc1)N1c2nc(-c3ccco3)nn2C2(CCCCC2)[C@@H]2CCCC[C@@H]21", "survival": "inactive: 62%"}
{"smiles": "Cc1cc(C)cc(NC(=O)Cc2noc3ccccc23)c1", "survival": "active: 54%"}
{"smiles": "Cc1cc(C)c(S(=O)(=O)Nc2nnc(C(F)(F)F)s2)c(C)c1", "survival": "active: 36%"}
{"smiles": "Cc1cc(C)c(NC(=O)C2CCCN(S(=O)(=O)c3c(C)noc3C)C2)c(C)c1", "note": "(configuration not stated)", "survival": "inactive: 84%"}
{"smiles": "Cc1ccccc1OCc1ccc(-c2nc(C#N)c(N3CCN(c4cccc(Cl)c4)CC3)o2)o1", "survival": "inactive: 53%"}
{"smiles": "Cc1cc(C)cc(NC(=O)C(Cc2ccccc2)NS(=O)(=O)c2ccc3c(c2)CCC(=O)N3)c1", "note": "(configuration not stated)", "survival": "inactive: 77%"}
{"smiles": "CC(C)NS(=O)(=O)c1ccc(CCC(=O)Nc2ccc3c(c2)OCCO3)cc1", "survival": "inactive: 83%"}
{"smiles": "CCOc1ccccc1NC(=O)C(=O)Nc1ccc2nc3n(c(=O)c2c1)CCCCC3", "survival": "inactive: 64%"}
{"smiles": "OCc1cnc(SCc2ccccc2F)n1Cc1ccc(F)cc1", "survival": "inactive: 87%"}
{"smiles": "Nc1n[nH]c2c1C1(CCCC1)Cc1ccccc1-2", "survival": "inactive: 100%"}
{"smiles": "Cc1ccc2cccc(NC(=S)NC(=O)c3ccn(C)n3)c2n1", "survival": "inactive: 78%"}
{"smiles": "O=C(c1ccc2c(c1)N(Cc1ccc(F)cc1)C(=O)c1ccccc1S2(=O)=O)N1CCCCC1", "survival": "inactive: 131%"}
{"smiles": "NC(=O)c1cc(S(=O)(=O)N2CCN(c3cccc(C(F)(F)F)c3)CC2)cs1", "survival": "inactive: 87%"}
{"smiles": "COc1cc(NC(=O)CSc2c3c(nc4ccccc24)CCC3)cc(OC)c1OC", "survival": "inactive: 82%"}
{"smiles": "O=c1[nH]c2cc3c(cc2cc1CN(Cc1ccc2c(c1)OCO2)S(=O)(=O)c1ccc(F)cc1)OCO3", "survival": "inactive: 61%"}
{"smiles": "CCCCCCOc1ccc(C2C(=O)N(C3CCCCC3)CC(=O)N2C2CCCCC2)cc1", "note": "(configuration not stated)", "survival": "inactive: 95%"}
{"smiles": "CCN(CC)S(=O)(=O)c1ccc(C(=O)NCCSc2c(-c3ccccc3)[nH]c3ccccc23)cc1", "survival": "inactive: 82%"}
{"smiles": "CCC(=O)N1CCc2cc(S(=O)(=O)NCCC(=O)Nc3ccc(N(CC)CC)cc3C)ccc21", "survival": "inactive: 77%"}
{"smiles": "CCc1c(C)c2cc3c(c(C)c2oc1=O)OCN(CCc1ccccc1F)C3", "survival": "inactive: 101%"}
{"smiles": "CC1CCCCN1S(=O)(=O)c1ccc(S(=O)(=O)NCc2ccc3c(c2)OCO3)cc1", "note": "(configuration not stated)", "survival": "inactive: 85%"}
{"smiles": "O=C(CSc1nc2ccccc2nc1Cc1ccc(Cl)cc1)N1CCN(c2ccccc2)CC1", "survival": "inactive: 84%"}
{"smiles": "O=C(CSc1nc(-c2cccc(F)c2)[nH]c1-c1ccccc1)Nc1ccc2c(c1)OCO2", "survival": "active: 32%"}
{"smiles": "Cc1ccc(-n2ncc(C(=O)NCc3ccco3)c2C2CCN(C(=O)OC(C)(C)C)CC2)cc1C", "survival": "inactive: 84%"}
{"smiles": "COc1cc(NC(=O)c2cc3cc4ccc(C)cc4nc3o2)cc(OC)c1OC", "survival": "inactive: 89%"}
{"smiles": "CCc1ccccc1N(C)C(=O)C1CCCN(c2ncnc3c2nc2n3CCCCC2)C1", "note": "(configuration not stated)", "survival": "inactive: 83%"}
{"smiles": "CCOC(=O)C1(Cc2ccc(O)cc2)NC(c2ccccc2F)C2C(=O)N(C)C(=O)C21", "note": "(configuration not stated)", "survival": "inactive: 82%"}
{"smiles": "CCOC(=O)c1ccc(NC(=O)c2cn3c4c(ccc(Cl)c4c2=O)OC(C)C3)cc1", "note": "(configuration not stated)", "survival": "inactive: 72%"}
{"smiles": "COc1cc(OC)c(N(C)C(=O)Nc2cn(CC(C)C)c(=O)c3ccccc23)cc1Cl", "survival": "inactive: 76%"}
{"smiles": "CCCc1nn2c(=O)cc(COC(=O)CNC(=O)COc3ccc(C)cc3)nc2s1", "survival": "inactive: 94%"}
{"smiles": "Cc1ccc(-c2nc(C)c(CCNC(=O)c3ccccc3Br)s2)cc1", "survival": "inactive: 72%"}
{"smiles": "CSc1nc2ccccc2n1CC(=O)Nc1c(C)cccc1C", "survival": "inactive: 93%"}
{"smiles": "COc1ccc(NC2=C(c3ccc(C(F)(F)F)cc3)C(=O)c3ccccc32)cc1", "survival": "inactive: 79%"}
